From PubChem BioAssay AID1745853 (National Center for Advancing Translational Sciences (NCATS), 2022)
This is one part of the list. These are further read-outs of the screen, such as a control signal, another cell line or another target. No call is given for them.

Legend:
Assay in all cases: Primary Screen for Target Class Profiling of Small Molecule Inhibitors of Methyltransferases
[1] = molecular target: Glycine N-methyltransferase (Homo sapiens) (UniProt Q14749); details: purified enzyme, MTase-Glo SAH luminescence; measured here: GNMT inhibition; at 40 µM; stronger effect = lower value
Procedure, shortened: (§1)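 Each enzyme was reacted with SAM and its substrate, with compounds tested once at 40 uM; SAH formed was read by MTase-Glo luminescence.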

[2] = molecular target: Guanidinoacetate N-methyltransferase (Homo sapiens) (UniProt Q14353); details: purified enzyme, MTase-Glo SAH luminescence; measured here: GAMT inhibition; at 40 µM; stronger effect = lower value
Procedure, shortened: as §1

[3] = molecular target: Histamine N-methyltransferase (Homo sapiens) (UniProt P50135); details: purified enzyme, MTase-Glo SAH luminescence; measured here: HNMT inhibition; at 40 µM; stronger effect = lower value
Procedure, shortened: as §1

[4] = molecular target: Nicotinamide N-methyltransferase (Homo sapiens) (UniProt P40261); details: purified enzyme, MTase-Glo SAH luminescence; measured here: NNMT inhibition; at 40 µM; stronger effect = lower value
Procedure, shortened: as §1

[5] = molecular target: Phenylethanolamine N-methyltransferase (Homo sapiens) (UniProt P11086); details: purified enzyme, MTase-Glo SAH luminescence; measured here: PNMT inhibition; at 40 µM; stronger effect = lower value
Procedure, shortened: as §1
% is set by controls: 0 for no effect and ±100 for the full control effect.

Compound | activity change, negative = inhibition [1] | activity change, negative = inhibition [2] | activity change, negative = inhibition [3] | activity change, negative = inhibition [4] | activity change, negative = inhibition [5]
Cc1cccc(C(=O)N2CCN(c3cc(C(F)(F)F)nc(C)n3)CC2)c1 | -7.59% | -10.7% | -4.5% | -10.6% | -16.1%
Cc1ccc(NC(=O)Cn2nc3n(CCCOC(C)C)c(=O)c4ccccc4n3c2=O)cc1 | 2.35% | 4.4% | 1.68% | 3.28% | 3.21%
COc1cc(C(C)=O)ccc1O[C@@H]1O[C@H](CO[C@@H]2OC[C@@H](O)[C@H](O)[C@H]2O)[C@@H](O)[C@H](O)[C@H]1O | 2.06% | 0.89% | 9.06% | -11.4% | -4.82%
CC(C)CNC(=O)c1ccc2c(=O)n(CC(C)C)c3nnc(SCC(=O)NC(C)(C)C)n3c2c1 | 1.76% | 0% | 8.54% | -7.43% | 2.38%
CC1(C)CCCC2(C)C(CO)C3CCC2C31 (configuration not stated) | 3.35% | 7.74% | 11.3% | -6.6% | 4.48%
Cc1ccccc1NC(=O)Cn1nc2n(CCC(C)C)c(=O)c3ccc(C(=O)NCC(C)C)cc3n2c1=O | -5.05% | -5.55% | -3.56% | -7.79% | -8.13%
Cc1ccccc1Cn1nc2n(Cc3ccc(F)cc3)c(=O)c3ccccc3n2c1=O | 6.79% | 1.42% | 6.86% | 7.05% | 7.22%
O=C(CCn1ccc2cc(S(=O)(=O)N3CCCCC3)ccc21)NCc1cccc(Cl)c1 | -4.85% | -0.098% | -4.54% | -16.2% | -2.53%
COC(=O)CCC(=O)N1CCOC(CCCC(C)C)C1 (configuration not stated) | -0.794% | -1.63% | -0.035% | -4.68% | -3.19%
COc1ccccc1CNC(=O)C1(C)Cn2c(cc3ccccc32)C(=O)N1CCc1ccc(OC)c(OC)c1 (configuration not stated) | -1.02% | 2.96% | 4.84% | -5.25% | 0.807%
C=CC(C)(O)CC[C@@H]1[C@@]2(C)CCCC(C)(C)C2CC[C@@]1(C)O (some centres not stated) | -6.79% | – | -3.05% | – | –
COc1cccc(C(=O)N2CCC(N3C(=O)c4c(c(C)nn4-c4ccccc4)C3C3CC3)C2)c1 (configuration not stated) | -12.1% | -15.1% | -12.5% | -30.5% | -18.1%
O=C(CCc1nnc2n(CCc3ccccc3)c(=O)c3ccccc3n12)N1CCN(c2ccc(Cl)cc2)CC1 | -8.59% | 0% | 4.37% | -4.38% | -0.672%
Cc1nnc2ccc(NC3CCCC3)nn12 | -9.2% | -12.5% | -9.27% | -14.9% | -13.8%
Cc1cccc(NC(=O)N2CCCCC2c2nc(-c3cnccn3)n[nH]2)c1 (configuration not stated) | -3.83% | -9.27% | -4.3% | -8.77% | -8.81%
CCCn1c(=O)c2ccc(C(=O)NCC(C)C)cc2n2c(=O)n(CC(=O)N(C)c3ccc(F)cc3)nc12 | 5.38% | 0% | 4.18% | 5.97% | 5.37%
C[C@@H]1CN(C2(C(=O)NCc3n[nH]c4c3CCC4)Cc3ccccc3C2)C[C@H](C)O1 | -3.67% | -11% | -5.34% | -13.9% | -11.4%
COc1ccc(CCN2C(=O)c3ccccc3CC2(C)C(=O)NC2CCC(C)CC2)cc1OC (configuration not stated) | -9.48% | 2.7% | -2.31% | -1.5% | -8.16%
CCCn1c(=O)[nH]c(=O)c2[nH]cnc21 | -1.62% | 11.1% | 6.19% | -3.35% | 3.43%
COC(=O)c1ccc(COc2cc3oc(=O)cc(-c4ccccc4)c3cc2Cl)cc1 | -5.1% | 3.06% | -1.03% | 2.46% | -7.04%
C[C@@H]1O[C@@H](O[C@@H]2CO[C@@H](O[C@H]3CC[C@@]4(C)C(CC[C@]5(C)C4CC=C4[C@@H]6CC(C)(C)CC[C@]6(C(=O)O[C@@H]6O[C@H](CO)[C@@H](O)[C@H](O)[C@H]6O)CC[C@]45C)[C@]3(C)CO)[C@H](O)[C@H]2O[C@@H]2O[C@H](CO)[C@@H](O)[C@H](O)[C@H]2O)[C@H](O)[C@H](O)[C@H]1O (some centres not stated) | -2.3% | -13.4% | 2.44% | -24.6% | 0.544%
C=CC(=O)N1CCN(C(=O)c2cc(-c3cc(Cl)ccc3Cl)c(Cl)cc2OC)CC1 | -67.3% | 2.39% | -7.94% | -46% | 5.49%
CCC(C)NC(=O)Cn1nc2n(C(C)C)c(=O)c3ccc(C(=O)NC(C)C)cc3n2c1=O (configuration not stated) | 2.22% | 2.25% | 4.99% | 1.36% | 4.93%
COc1ccc(/C=C/C(=O)O[C@@H]2[C@@H](O)[C@@H](O)[C@H](O[C@@H]3C=C(CO)[C@H]4[C@H](O[C@@H]5O[C@H](CO)[C@@H](O)[C@H](O)[C@H]5O)OC=C[C@H]43)O[C@H]2C)cc1O | -0.828% | -5.04% | -9.54% | -13.6% | -1.46%
CC1(C)CCC(C)(C)c2cc(C3(c4ccc(C(=O)O)cc4)OCCO3)ccc21 | 5.55% | -0.117% | 4.89% | -28.6% | 1.43%
CC1=NOC2(CCN(Cc3ccc(Cl)cc3)CC2)C1 | -0.766% | -2% | 0.305% | -4.4% | -0.792%
CCCNC(=O)N1Cc2c(sc3c2CCCC3)-n2cccc2C1C(C)C (configuration not stated) | -9.75% | -0.854% | 1.11% | -9.78% | -2.26%
CCCn1c(=O)c2ccc(C(=O)NC3CCCC3)cc2n2c(=O)n(CC(=O)Nc3ccc(C)cc3C)nc12 | 3.89% | 2.98% | 6.74% | 0.413% | 0.505%
C[C@@H]1O[C@@H](OC2C(CO)OC(OCC3OC(OC(=O)[C@]45CCC(C)(C)CC4C4=CCC6[C@@]7(C)CC[C@@H](O)[C@](C)(C(=O)O)C7CC[C@@]6(C)[C@]4(C)CC5)C(O)C(O)C3O)C(O)C2O)[C@H](O)[C@H](O)[C@H]1O (some centres not stated) | 0.666% | 4.42% | 5.14% | -12.7% | 0.708%
